From PubChem BioAssay AID1454 (National Center for Advancing Translational Sciences (NCATS), 2008)
About 550 (0.42%) of roughly 130,000 compounds were called active. Inconclusive means that the source gave no clear call. Such entries were picked first, then a sample of the others. Calls come from the whole dose curve; as a rule, active = well fitted inhibition curve with a large enough effect; inconclusive = small, poorly fitted or top-dose-only effect, or effect the other way; inactive = flat fitted curve, though single readings scatter. Potencies of inconclusive entries are left out as doubtful fits.

assay: qHTS Assay for Inhibitors of the ERK Signaling Pathway using a Homogeneous Screening Assay; Stimulation with EGF; conditions: HEK293-V1b, EGF-stimulated phospho-ERK AlphaScreen; note: nearly all actives have a fitted effect of over 55% in size
In short: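 In this qHTS, HEK293 cells with stable type-1 vasopressin (V1b) receptor were exposed to compound at 37C for 30 min, stimulated 5 min with EGF at 25 nM, lysed, and probed for phospho-ERK by AlphaScreen.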
Potency is the fitted concentration of half-maximal effect; tags give direction and shape of the fitted curve.

Row | Structure (SMILES) | Potency
1 | COc1ccc(N=C(C)c2sc3ccccc3c2O)cc1 | inconclusive [inhibitor, single point]
2 | O=C(C[n+]1ccccc1)Nc1ccccc1Br | inconclusive [activator, partial curve, poor fit]
3 | COc1cccc(OC)c1C(=O)Nc1ccc2c(c1)Cc1ccccc1-2 | inconclusive [inhibitor, single point]
4 | CCN(CC)CCCn1c(C)cc2c(c1=O)C(c1ccccc1)C(C#N)=C(N)O2 (stereo not given) | inconclusive [inhibitor, full curve, poor fit]
5 | CCCCCCCCCCCCCCC/C=C/[C@@H](O)[C@H](NC(=O)CCCCCCCCCCCCC)OC (tested in a mixture with another compound) | inactive
6 | Fc1cnc(N/N=C/c2ccc(-c3ccc(Br)cc3)o2)nc1N1CCOCC1 | inconclusive [inhibitor, single point]
7 | CCCCOc1ccc(N=Nc2ccc(N)nc2N)cn1 | inconclusive [inhibitor, single point]
8 | COC(=O)[C@@]1(Cc2ccc(F)cc2)[C@H]2c3cc(C(=O)N4CCCC4)n(Cc4ccc(C(F)(F)F)nc4)c3C[C@H]2CN1C(=O)c1ccccc1 | inactive
9 | CCN1/C(=C/C(C)=C/c2sc3ccccc3[n+]2CC)Sc2ccccc21 | active: 17.8 µM
10 | O=c1[nH]c(=O)n(-c2ccc(F)cc2)c2c1C(C(F)(F)F)(C(F)(F)F)N=C(c1ccc(F)cc1)N2 | inactive
11 | COc1ccccc1/C=N/NC(=O)c1ccc(Br)cc1 | inconclusive [inhibitor, single point]
12 | Cc1ccc(Nc2c(-c3ccccc3O)nc3cnccn23)cc1 | active: 25.1 µM
13 | CCN(CC)S(=O)(=O)c1ccc(N2CCN(c3cccc(OC)c3)CC2)c([N+](=O)[O-])c1 | inconclusive [inhibitor, single point]
14 | CC1CCN(S(=O)(=O)c2ccc(C(=O)Nc3nnc(-c4ccccn4)o3)cc2)CC1 | inconclusive [activator, partial curve, poor fit]
15 | COC(=O)c1[nH]c2ccc(F)cc2c1NS(=O)(=O)c1ccc(F)c(C)c1 | inconclusive [activator, partial curve, poor fit]
16 | O=c1[nH]nnc2sc3c(c12)CCCC3 | inactive
17 | Cc1ccc2[nH]nc(C(=O)N3CCCC(C(=O)c4ccc(Cl)cc4)C3)c2c1 (stereo not given) | inconclusive [inhibitor, single point]
18 | O=c1oc2cc(O)ccc2cc1-c1nc2c(s1)CCc1ccccc1-2 | inconclusive [activator, partial curve]
19 | COc1cccc(/C=N/Nc2ncnc3c2ncn3Cc2ccccc2)c1O | active: 12.6 µM
20 | Cc1ccc(-c2cn3nc(-c4ccccc4)c(-c4ccccc4)nc3n2)cc1 | inconclusive [activator, partial curve]
21 | COC(=O)[C@@]1(Cc2ccc(OC)cc2)[C@H]2c3cc(C(=O)N4CCCC4)n(Cc4ccc(C)c(F)c4F)c3C[C@H]2CN1C(=O)c1ccccc1 | inactive
22 | COC(=O)[C@@]1(Cc2ccccc2)[C@H]2c3cc(C(=O)N4CCCC4)n(CCc4ccccn4)c3C[C@H]2CN1C(=O)c1ccccc1 | inactive

Row | Structure (SMILES) | Potency
23 | Cc1ccc(Nc2nc(C)cs2)cc1 | inconclusive [activator, full curve, poor fit]
24 | CCCCc1nc2sc3c(c2c(=O)n1NC(=O)c1ccco1)CC(C)(C)OC3 | inconclusive [activator, partial curve, poor fit]
25 | Oc1cc(OCc2ccccc2)ccc1-c1[nH]ncc1-c1ccccc1 | inconclusive [inhibitor, single point]
26 | O=C(/C(=N\Nc1ccc([N+](=O)[O-])cc1)Sc1nnnn1-c1ccccc1)c1ccccc1 | inconclusive [inhibitor, single point]
27 | C=CCn1c(SCC(=O)Nc2ncc(Cc3ccc(C)c(Cl)c3)s2)nnc1-c1ccncc1 | inactive
28 | O=C(NCc1ccco1)c1ccc(Cn2c(=S)[nH]c3ccccc3c2=O)cc1 | inactive
29 | O=c1c2ccccc2nc(-c2ccccc2)n1/N=C/c1ccc([N+](=O)[O-])cc1 | inconclusive [inhibitor, single point]
30 | Cc1cc(F)ccc1NCc1ccccc1[N+](=O)[O-] | inconclusive [inhibitor, partial curve]
31 | Cc1nccc(-c2cccc(N/N=C(\C#N)C(=O)c3ccccc3)c2)n1 | inconclusive [inhibitor, partial curve]
32 | OCC(O)C(O)[C@H](O[C@H]1OC(CO)C(O)C(O)C1O)[C@H](O)CO (stereo not given in full) | inactive
33 | COc1cc2nc(/C=C/c3cc(OC)c(OC)c(OC)c3)sc2cc1SC | inconclusive [activator, partial curve]
34 | O=C(O)c1ccc(COc2ccccc2/C=C2\NC(=O)N(Cc3ccccc3)C2=O)cc1 | inactive
35 | CC1C/C(=C/c2ccco2)C(=O)/C(=C/c2ccco2)C1 (stereo not given) | inconclusive [inhibitor, single point]
36 | Cc1ccc(O)c(C(=O)/C=C/c2ccc3c(c2)OCCO3)c1 | inconclusive [inhibitor, single point]
37 | COc1ccc2c(c1)CCC1=C2NC(=S)NC1c1ccc(N(C)C)cc1 (stereo not given) | inconclusive [inhibitor, single point]
38 | Oc1[nH]c2ccccc2c1N=NC(=S)NCCc1ccccc1 | inconclusive [inhibitor, single point]
39 | C=C(C)COc1ccc(-c2[nH]ncc2-c2ccc(OC)cc2)c(O)c1 | inconclusive [inhibitor, single point]
40 | CCn1cc(C(=O)O)c(=O)c2cnc(N3CCN(C(=S)NC(=O)c4ccc(Cl)cc4)CC3)nc21 | inconclusive [inhibitor, single point]
41 | Cn1c(=O)c2c(-c3cccc(Br)c3)c(C#N)c(N)nc2n(C)c1=O | inconclusive [inhibitor, partial curve, poor fit]
42 | c1cc2c(cc1C1CCCCC1)c1c3n2CCCNC3CCC1 (stereo not given) | active: 28.2 µM
43 | CCOc1ccc(NCc2nc3ccccc3n2CCOc2ccccc2)cc1 | inconclusive [inhibitor, single point]
44 | COc1ccccc1Oc1ccc(N/C=C/C(=O)c2ccc(C)o2)cc1 | inconclusive [inhibitor, single point]

Row | Structure (SMILES) | Potency
45 | Cc1ccc2cc(C#N)c(NCCNC(=S)NCCCN3CCOCC3)nc2c1 | inconclusive [inhibitor, single point]
46 | CCCNC(=O)COC(=O)c1ccccc1C(=O)c1ccc(Cl)c([N+](=O)[O-])c1 | inconclusive [inhibitor, single point]
47 | N#C/C(=C\c1ccccc1[N+](=O)[O-])c1nc(C2CC2)cs1 | inconclusive [inhibitor, partial curve]
48 | COC(=O)C1=C(C)N(C)C(=S)NC1c1ccc(OC)cc1OC (stereo not given) | inconclusive [inhibitor, single point]
49 | COc1ccc(CN2C(=O)NC(C)(c3ccc(C)cc3)C2=O)cc1F (stereo not given) | inconclusive [activator, full curve, poor fit]
50 | Cc1onc(-c2ccccc2)c1C(=O)Nc1ccc(S(=O)(=O)NC(C)(C)C)cc1 | inactive
51 | O=c1cc(CO)oc(C(Nc2ccccn2)c2ccccc2Cl)c1O (stereo not given) | inconclusive [inhibitor, partial curve]
52 | O=C(CON=C1c2ccccc2-c2ccccc21)NC12CC3CC(CC(C3)C1)C2 | inactive
53 | O=C(NN=C1CCN(Cc2ccccc2)CC1)c1ccccc1O | inconclusive [inhibitor, partial curve]
54 | CCOC(=O)C1CCN(C2=C(NS(=O)(=O)c3ccc(Cl)cc3)C(=O)c3ccccc3C2=O)CC1 | active: 31.6 µM
55 | Cc1nc(Nc2ccc(C(=O)O)cc2)nc(Nc2ccc(C(=O)O)cc2)c1[N+](=O)[O-] | inactive
56 | O=C(Nc1ccc2nc3n(c(=O)c2c1)CCCC3)c1cc([N+](=O)[O-])ccc1F | inactive
57 | N#C/C(=C\c1ccc(Cl)c([N+](=O)[O-])c1)c1ccccn1 | inconclusive [inhibitor, partial curve]
58 | N.N.N.N.N.N.N.N.N.N.N.N.N.N.O.O.[Cl-].[Cl-].[Cl-].[Cl-].[Cl-].[Cl-].[Ru].[Ru].[Ru] | active: 15.8 µM
59 | O=C(Nc1ccc(F)cc1)C1CCC(CNc2c(N3CCCCC3)c(=O)c2=O)CC1 (stereo not given) | inconclusive [activator, full curve, poor fit]
60 | CN(C)C(=O)/C(=C\c1ccc(-c2cccc([N+](=O)[O-])c2)o1)NC(=O)c1ccccc1 | inconclusive [inhibitor, single point]
61 | CN1C(=S)N(c2cccnc2)C(=O)/C1=C\c1ccc(C(C)(C)C)cc1 | inconclusive [inhibitor, single point]
62 | N=C1S/C(=C\c2ccco2)C(=O)N1c1nccs1 | inactive
63 | CNCCCCc1cnc(C)c2[nH]c3ccccc3c12 | inactive
64 | O=[N+]([O-])c1cccnc1Oc1ccc(C2SCCS2)cc1 | inconclusive [inhibitor, single point]
65 | CC(=O)N(C(C)=O)S(=O)(=O)c1ccc(N=NN2CCOCC2)cc1 | inactive
